From US20240124563A1 (NANJING ZAIMING PHARMACEUTICAL, published 2024)

B1: NB149-34 VHH-hFc (Fc fusion)
chain: QLQLVESGGGLVQPGGSLRLSCAASGSVNSITAMGWYRQGPGNERELVAVITDRGRASYADSVKGRFAISMDNDKHTVYLQMDSLKPEDTAVYYCNAHRRTWPHPGDYWGQGTQVTVSS[human IgG1 Fc with changes not written out]
B2: NB149-70 VHH-hFc (Fc fusion)
chain: QVQLVESGGGLVQPGGSLRLSCAASGSIFSGNAVAWYRQAPGKEREAVAVITRDGDTKYADSVKGRFTISRYNAKNIAYLQMNSLKPEDTAVYYCNTARGAAVDSWGQGTQVTVSS[human IgG1 Fc with changes not written out]
B3: NB149-95 VHH-hFc (Fc fusion)
chain: QVQLVESGGGLVQAGGSLRLSCTASESGFSANYMGWYRQEAPGKERELVATINRFGSTNYADSVKGRFTISRDNAKNTVYLQMNSLKSEDTGVYYCRIMRPGNWYWGQGTQVTVSS[human IgG1 Fc with changes not written out]
B4: NB148-35 VHH-hFc (Fc fusion)
chain: EVQVVESGGGLVQPGGSLRLSCGVSGSILALNTMRWYRQTPGNQREWVASIYSSGGSTGYADSVKGRFIISRDSAKNMMSLQMNSLKSEDTAVYYCNVQTPLNVYWGQGTQVTVSS[human IgG1 Fc with changes not written out]
B5: NB148-88 VHH-hFc (Fc fusion)
chain: QLQLVESGGGLVQPGGSHRLSCAVSVSTFTRYAMRWYRQAPGKEREWLTSIYSDGSSAYADSVKDRFTISLDNAKNMLYLQMNSLKPEDTAVYYCNANVDSKAYWGQGTQVTVAS[human IgG1 Fc with changes not written out]
B6: NB148-25 VHH-hFc (Fc fusion)
chain: QVQLVESGGGLVQAGGSLRLSCAASGSTFGRIVMRWYRQAQGKQREWVASIYDSGSTSYSDPVQGRFTISRDNARNTVYLQMNSLRPADTAVYYCNLGTALSSYWGQGTQVTVSS[human IgG1 Fc with changes not written out]

Legend:
[1] = target: T1, human MSLN protein endogenously expressed on tumor cells (Hela, OVCAR3) (human, UniProt Q13421 296-598); assay: FACS, OVCAR3 cells, antibody 2 nM
T1 construct: whole, on cells

[2] = target: T1, human MSLN protein endogenously …; assay: FACS, OVCAR3 cells, antibody 20 nM
[3] = target: T1, human MSLN protein endogenously …; assay: FACS, OVCAR3 cells, antibody 0.2 nM
[4] = target: T2, human MSLN full-length protein, recombinant, on CHO-K1 or HEK293T cells (human, UniProt Q13421 296-598); assay: FACS, HEK293T-hMSLN-B8 cells, antibody 20 nM
T2 construct: The background says that the precursor is cleaved by furin to the mature membrane form; also called hMSLN; CHO-K1-hMSLN-2C8

[5] = target: T2, human MSLN full-length protein, …; assay: FACS, HEK293T-hMSLN-B8 cells, antibody 0.2 nM
[6] = target: T3, chimeric human MSLN-R3 / chicken MSLN-R1-2 protein on HEK293T cells (clone A5) (chicken; human); assay: FACS, HEK293T-hR3/chickR1-2-A5 cells, antibody 20 nM
T3 construct: range 327-514; Human R1-R2 replaced by chicken R1-R2; also called HEK293T-chickR1-2/hR3-A5; HEK293T-hR3/chickR1-2-A5

[7] = target: T3, chimeric human MSLN-R3 / chicken …; assay: FACS, HEK293T-hR3/chickR1-2-A5 cells, antibody 0.2 nM
[8] = target: T4, human MSLN-FL-his protein (human, UniProt Q13421 296-580); assay: competitive ELISA on MSLN-FL-His; other antibody: NB148-27 (3.m3)
T4 construct: Made in HEK293E cells, purified on nickel column; also called hMSLN-FL-his; not shown: histidine tag

[9] = target: T4, human MSLN-FL-his protein; assay: competitive ELISA on MSLN-FL-His; other antibody: NB148-35 (3.m4)
[10] = target: T4, human MSLN-FL-his protein; assay: competitive ELISA on MSLN-FL-His; other antibody: NB148-88 (3.m6)
[11] = target: T4, human MSLN-FL-his protein; assay: competitive ELISA on MSLN-FL-His; other antibody: NB149-31 (3.m7)
[12] = target: T4, human MSLN-FL-his protein; assay: competitive ELISA on MSLN-FL-His; other antibody: NB149-70 (3.m9)
[13] = target: T4, human MSLN-FL-his protein; assay: competitive ELISA on MSLN-FL-His; other antibody: Tab107 (C) (1.m4)
[14] = target: T2, human MSLN full-length protein, …; assay: competitive FACS on CHO-K1-human MSLN-2C8 cells vs Biotin-Tab142; competitor at 4 nM
[15] = target: T2, human MSLN full-length protein, …; assay: competitive FACS on CHO-K1-human MSLN-2C8 cells vs Biotin-Tab142; competitor at 20 nM
[16] = target: T4, human MSLN-FL-his protein; assay: competitive ELISA on MSLN-FL-His; other antibody: Tab108 (R3) (3.m14)
[17] = target: T4, human MSLN-FL-his protein; assay: competitive ELISA on MSLN-FL-His; other antibody: Tab142 (R1) (3.m16)
[18] = target: T2, human MSLN full-length protein, …; assay: competitive FACS on CHO-K1-human MSLN-2C8 cells vs Biotin-Tab142; competitor at 0.8 nM
[19] = target: T2, human MSLN full-length protein, …; assay: competitive FACS on CHO-K1-human MSLN-2C8 cells vs Biotin-Tab142; competitor at 100 nM
[20] = target: T2, human MSLN full-length protein, …; assay: competitive FACS on CHO-K1-human MSLN-2C8 cells vs Biotin-Tab142; competitor at 0.16 nM
[21] = target: T2, human MSLN full-length protein, …; assay: competitive FACS on CHO-K1-human MSLN-2C8 cells vs Biotin-Tab142; competitor at 0.0064 nM
[22] = target: T2, human MSLN full-length protein, …; assay: competitive FACS on CHO-K1-human MSLN-2C8 cells vs Biotin-Tab142; competitor at 0.00128 nM

T4 sequence (Q13421 other isoform, or with tags, fused parts or gaps): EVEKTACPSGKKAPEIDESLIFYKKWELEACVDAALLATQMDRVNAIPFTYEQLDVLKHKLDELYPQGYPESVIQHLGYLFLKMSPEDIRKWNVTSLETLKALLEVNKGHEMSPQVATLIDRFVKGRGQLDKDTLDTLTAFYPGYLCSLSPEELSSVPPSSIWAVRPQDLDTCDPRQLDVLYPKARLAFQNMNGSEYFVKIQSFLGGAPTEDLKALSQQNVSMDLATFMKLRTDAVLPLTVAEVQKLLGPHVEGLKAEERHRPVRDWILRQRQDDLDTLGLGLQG

| Binder | MFI [1] | MFI [2] | MFI [3] | MFI [4] | MFI [5] | MFI [6] | MFI [7] | inhibition rate [8] [%] | inhibition rate [9] [%] | inhibition rate [10] [%] | inhibition rate [11] [%] | inhibition rate [12] [%] | inhibition rate [13] [%] | MFI of Biotin-Tab142 [14] | MFI of Biotin-Tab142 [15] | inhibition rate [16] [%] | inhibition rate [17] [%] | MFI of Biotin-Tab142 [18] | MFI of Biotin-Tab142 [20] | MFI of Biotin-Tab142 [21] | further results |
| --- | --- | --- | --- | --- | --- | --- | --- | --- | --- | --- | --- | --- | --- | --- | --- | --- | --- | --- | --- | --- | --- |
| B1 | 7150 | 12200 | 1370 | 23500 | 847 | 73 | 73 | 56 | -12 | -14 | 71 | 59 | 15 | 31500 | 24600 | 25 | 65 | 39700 | 41700 | 42500 | MFI of Biotin-Tab142 [19]: 17200; MFI of Biotin-Tab142 [22]: 40800 |
| B2 | 6440 | 11400 | 1240 | 22800 | 1430 | 73 | 91 | 67 | 23 | 26 | 47 | 34 | 4 | 33400 | 25100 | 3 | 42 | 40400 | 41000 | 42100 | MFI of Biotin-Tab142 [19]: 20200; MFI of Biotin-Tab142 [22]: 40600 |
| B3 | 8930 | 12800 | 1950 | 28000 | 678 | 95 | 76 | 39 | 1 | 3 | 13 | 19 | -2 | 29400 | 21400 | 2 | 9 | 38000 | 41400 | 42300 | MFI of Biotin-Tab142 [19]: 20500; MFI of Biotin-Tab142 [22]: 42200 |
| B4 | 7480 | 9220 | 1610 | 29700 | 1050 | 73 | 73 | -12 | 86 | 92 | -33 | -24 | -290 | 41200 | 41100 | -19 | -129 | 43200 | 42000 | 39900 | MFI of Biotin-Tab142 [19]: 40600; MFI of Biotin-Tab142 [22]: 41000 |
| B5 | 7140 | 9370 | 1480 | 30600 | 1250 | 73 | 73 | 23 | 53 | 68 | 37 | -89 | 25 | 43000 | 42600 | 79 | 14 | 42000 | 43200 | 41700 | MFI of Biotin-Tab142 [19]: 45200; MFI of Biotin-Tab142 [22]: 41100 |
| B6 | 7740 | 8540 | 1970 | 29400 | 784 | 73 | 73 | 48 | 90 | 89 | 24 | 38 | -36 | 41100 | 41600 | 70 | -28 | 41800 | 41500 | 42200 | MFI of Biotin-Tab142 [22]: 42100 |
